This assay relates to BSA. Nature of the assay: Anti-BSA antibody responses (ELISA) after i.n. immunization. The settings on record: i.n. at 0, 7, 21 d, 10 μg BSA/immunization; 28 and 204 d. (ELISA stands for enzyme-linked immunosorbent assay.)

The values below come from patent US8758763B2, “Archaeal polar lipid aggregates for administration to animals” (National Research Council of Canada, priority 2006, dated 2014).

In the case of BSA/PBS: BSA alone in PBS, no adjuvant, the “anti-BSA fecal IgA, serum IgA and serum IgG responses” value is reported as “little to no”.
